Laboratory results reported in PMC7819943, “Rice protein-binding microarrays: a tool to detect cis-acting elements near promoter regions in rice”.
The other results are listed elsewhere or left out.

Molecular target: T1, OsWOX13 (Oryza sativa, UniProt Q5QMM3 1-267)
T1 sequence: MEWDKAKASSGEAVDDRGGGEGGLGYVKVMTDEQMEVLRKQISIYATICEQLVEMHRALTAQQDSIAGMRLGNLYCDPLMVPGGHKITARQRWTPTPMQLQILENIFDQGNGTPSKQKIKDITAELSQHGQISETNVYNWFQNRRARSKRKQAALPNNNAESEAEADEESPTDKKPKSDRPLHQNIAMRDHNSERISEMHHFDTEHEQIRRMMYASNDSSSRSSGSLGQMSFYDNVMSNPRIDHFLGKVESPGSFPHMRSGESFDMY
Test: protein-binding microarray (RPBM); PBS, 2% BSA, 51.3 ng/ul salmon testes DNA, 50 uM zinc acetate, 200 nM TF, 25 C, 1 h; high values mean tight binding
Settings: protein: recombinant; tags: N-terminal polyhistidine and DsRed monomer fusion (pET32a); label: CyDye5-dUTP incorporated in the synthesized complementary strand; 3' TTTTT single-stranded linker to array surface; dsDNA, one strand shown
Method in brief: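 An Axon 4000B scanner gave the binding signal as per-feature fluorescence intensity in arbitrary units. This followed washing of a custom Agilent array that had been incubated for 1 h at 25 °C with 200 nM protein in PBS, 2% BSA, salmon testes DNA and 50 µM zinc acetate. The proteins were transcription factors fused at the N-terminus to polyhistidine and DsRed, expressed in E. coli BL21-CodonPlus and purified on Ni–NTA.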

**Q.** With “TGAAACTAAATTTAGAAGTTGTAACTCTAATAAATAGGTACGGAGTCACCTAGTGCAG” as the sequence, how does the binding signal read?
**A.** The binding signal was 9440 fluorescence intensity (a.u.).

**Q.** With “AGAAAATAAATTTGGAAACAGCTCGTTCGCCGGGTCATGTCGGAGTCACCTAGTGCAG” as the sequence, how does the binding signal read?
**A.** Its binding signal is 4310 fluorescence intensity (a.u.).

**Q.** For “CCTTAACTTGTCATCAAATTACAAAATCGTCCTCCAACCACGGAGTCACCTAGTGCAG”, which binding signal is on record?
**A.** The binding signal was 8890 fluorescence intensity (a.u.).

**Q.** How did the binding signal turn out when “TTGCACTGATTTTGTAACTTAAGGGATACGTCGTATCCGGCGGAGTCACCTAGTGCAG” was run?
**A.** Its binding signal is 6500 fluorescence intensity (a.u.).

**Q.** How did the binding signal turn out when “CTAAATTTAGAATTCGATGATAATCCATGCAACTACTTCTCGGAGTCACCTAGTGCAG” was run?
**A.** The binding signal was 15600 fluorescence intensity (a.u.).

**Q.** How did the binding signal turn out when “AGCTCAATCACAAATTAGTAGTGAGGCCCACATGTAAGTGCGGAGTCACCTAGTGCAG” was run?
**A.** The binding signal was 26600 fluorescence intensity (a.u.).

**Q.** For “ATTTAGATAAATTGATTATTTCACAAAATTAACTCAATAACGGAGTCACCTAGTGCAG”, which binding signal is on record?
**A.** The binding signal was 21800 fluorescence intensity (a.u.).

**Q.** For “ATGTTTGTAATTATGCATATTTTGTAGTTTGCTAATATTCCGGAGTCACCTAGTGCAG”, which binding signal is on record?
**A.** The binding signal was 7960 fluorescence intensity (a.u.).

**Q.** Which binding signal does the source give for “TAAACTCCCTATCAATTTCCATCACCTCTACCAAACAAGACGGAGTCACCTAGTGCAG” here?
**A.** The binding signal was 5540 fluorescence intensity (a.u.).

**Q.** With “ATTAAAACTTAATTAAATATACTAATAGCTTTCTCATTTTCGGAGTCACCTAGTGCAG” as the sequence, how does the binding signal read?
**A.** Its binding signal is 7350 fluorescence intensity (a.u.).

**Q.** How did the binding signal turn out when “ATGACTGGAGATGGAGTTAATGACGCCCCTGCGCTAAAGCCGGAGTCACCTAGTGCAG” was run?
**A.** The binding signal was 4770 fluorescence intensity (a.u.).

**Q.** With “CGGTGATAGAGAATTACCCGGTGTTTTAGAGGGATACCACCGGAGTCACCTAGTGCAG” as the sequence, how does the binding signal read?
**A.** Its binding signal is 18900 fluorescence intensity (a.u.).

**Q.** Which binding signal does the source give for “TTCTCTGCTCGAAATTGATTCTTGGATAATGATGGACCGACGGAGTCACCTAGTGCAG” here?
**A.** The binding signal was 4850 fluorescence intensity (a.u.).

**Q.** For “ATAAATTGTTATGTTTTAACAACTCTAAAATAAGTTCCATCGGAGTCACCTAGTGCAG”, which binding signal is on record?
**A.** The binding signal was 12400 fluorescence intensity (a.u.).

**Q.** Which binding signal does the source give for “AGATAATTTCATAACATAAAACAGAGTAATATTCTAGAGTCGGAGTCACCTAGTGCAG” here?
**A.** Its binding signal is 10900 fluorescence intensity (a.u.).

**Q.** With “CTAAATTTAGCTCCAGACGTTAGGTCTAGAATTTAGTTGTCGGAGTCACCTAGTGCAG” as the sequence, how does the binding signal read?
**A.** The binding signal was 4460 fluorescence intensity (a.u.).

**Q.** With “AAAATAATTTATGAATAAAACTTTTATATATGTGTTCTTACGGAGTCACCTAGTGCAG” as the sequence, how does the binding signal read?
**A.** Its binding signal is 21400 fluorescence intensity (a.u.).

**Q.** For “CATTATTTGCCTAAATGATGATCAAACATGGATGAAGGAGCGGAGTCACCTAGTGCAG”, which binding signal is on record?
**A.** The binding signal was 4310 fluorescence intensity (a.u.).

**Q.** With “TCGCGTGGTTGATTGGCGGCTTCAGGCCTTGTTCGGTTGGCGGAGTCACCTAGTGCAG” as the sequence, how does the binding signal read?
**A.** Its binding signal is 27300 fluorescence intensity (a.u.).

**Q.** How did the binding signal turn out when “ATGTATTAATTTGCCACTTCCTTTTACTTGGTAAGTGGAGCGGAGTCACCTAGTGCAG” was run?
**A.** The binding signal was 14100 fluorescence intensity (a.u.).

**Q.** “ACACTGTTAAATTAAGTCATTCAAAATATATCTCTTCAAACGGAGTCACCTAGTGCAG” was tested. Which binding signal did it give?
**A.** Its binding signal is 3380 fluorescence intensity (a.u.).

**Q.** “TTTTATAATATGTAATCACAGACAGTTCTAAGACCCATCTCGGAGTCACCTAGTGCAG” was tested. Which binding signal did it give?
**A.** Its binding signal is 4590 fluorescence intensity (a.u.).

**Q.** Which binding signal does the source give for “GGAAAACAATTAGTATCTGATTAAACTACATCTGAATCTGCGGAGTCACCTAGTGCAG” here?
**A.** Its binding signal is 14500 fluorescence intensity (a.u.).

**Q.** Which binding signal does the source give for “TTCCGCTGCTTAGATCTTTATGATTGAGAGGAACTATCTACGGAGTCACCTAGTGCAG” here?
**A.** The binding signal was 3420 fluorescence intensity (a.u.).

**Q.** Which binding signal does the source give for “TTCAATTAATATCCAGTAACCAGTTTGATCTGCTACTCCCCGGAGTCACCTAGTGCAG” here?
**A.** The binding signal was 12200 fluorescence intensity (a.u.).

**Q.** With “GATCCAATCATGAGGGAGTGAGATCGAGCGATTGATTAGGCGGAGTCACCTAGTGCAG” as the sequence, how does the binding signal read?
**A.** The binding signal was 18900 fluorescence intensity (a.u.).

**Q.** Which binding signal does the source give for “CCGCCTTGACTGGATTTGCTGTCATTTCCAGAACTAGTCACGGAGTCACCTAGTGCAG” here?
**A.** Its binding signal is 17400 fluorescence intensity (a.u.).

**Q.** How did the binding signal turn out when “TTTGTAATAATTAAAACTCAATCAATAATACGTTAATACTCGGAGTCACCTAGTGCAG” was run?
**A.** Its binding signal is 13000 fluorescence intensity (a.u.).

**Q.** How did the binding signal turn out when “TTGAGAGTTATTCATGATTTATATTCCCAAGGTTTGACTTCGGAGTCACCTAGTGCAG” was run?
**A.** Its binding signal is 3500 fluorescence intensity (a.u.).

**Q.** For “CTAAATTTGTACTTGTAAGAAAATTTCTCAGTACAAAATCCGGAGTCACCTAGTGCAG”, which binding signal is on record?
**A.** Its binding signal is 5240 fluorescence intensity (a.u.).

**Q.** With “TCATCCTCAATCGTCATTGATAGGTGGGCCACTAGTCCAACGGAGTCACCTAGTGCAG” as the sequence, how does the binding signal read?
**A.** Its binding signal is 3640 fluorescence intensity (a.u.).

**Q.** For “TCGTTTTAATTTCAATTAAACTTATAATTTTGGCGTGACACGGAGTCACCTAGTGCAG”, which binding signal is on record?
**A.** Its binding signal is 35500 fluorescence intensity (a.u.).

**Q.** With “TTATTTTATCCAATCAGTTGTGCTTAGACATTTCCTCCAACGGAGTCACCTAGTGCAG” as the sequence, how does the binding signal read?
**A.** Its binding signal is 6280 fluorescence intensity (a.u.).

**Q.** “AGCAAACCAATCATGCATCATTACGCGTTAGTCAATCTCTCGGAGTCACCTAGTGCAG” was tested. Which binding signal did it give?
**A.** Its binding signal is 19400 fluorescence intensity (a.u.).

**Q.** “AAGGTTAATTGGATCCATGCCACGCGAATTGTGGCAAATCCGGAGTCACCTAGTGCAG” was tested. Which binding signal did it give?
**A.** Its binding signal is 22100 fluorescence intensity (a.u.).

**Q.** With “TCAGATTAGATTAGGTAGAATGGACTTTCTGCACGTCTTTCGGAGTCACCTAGTGCAG” as the sequence, how does the binding signal read?
**A.** The binding signal was 29700 fluorescence intensity (a.u.).

**Q.** With “GTACCTTCAAATAATTATCAGAAATTATCCAGCCATATTGCGGAGTCACCTAGTGCAG” as the sequence, how does the binding signal read?
**A.** The binding signal was 6900 fluorescence intensity (a.u.).

**Q.** “ATGATTGTTAACCAAAATTCAGTTATATTCTTATATACAACGGAGTCACCTAGTGCAG” was tested. Which binding signal did it give?
**A.** Its binding signal is 28300 fluorescence intensity (a.u.).

**Q.** Which binding signal does the source give for “TTTAATTCCAATTTTGATCACACGTACCAGATTGAATCACCGGAGTCACCTAGTGCAG” here?
**A.** Its binding signal is 23200 fluorescence intensity (a.u.).

**Q.** For “ATGTAGAGTTAATTTGTAAGTATGTAGGATCACCTAACTGCGGAGTCACCTAGTGCAG”, which binding signal is on record?
**A.** The binding signal was 5180 fluorescence intensity (a.u.).

**Q.** For “TAGAAGTTAAATTTGACCTAATATGTTTAATATGTTTATGCGGAGTCACCTAGTGCAG”, which binding signal is on record?
**A.** The binding signal was 3580 fluorescence intensity (a.u.).

**Q.** “ACCTTGATTAGTAGCCCTAAACCACAGGTTTAACCGCTTACGGAGTCACCTAGTGCAG” was tested. Which binding signal did it give?
**A.** Its binding signal is 30500 fluorescence intensity (a.u.).

**Q.** “GCTTGATTAGTGGCAGCTTAATGACGAATGAGCCGTAGCACGGAGTCACCTAGTGCAG” was tested. Which binding signal did it give?
**A.** Its binding signal is 36700 fluorescence intensity (a.u.).

**Q.** How did the binding signal turn out when “TTTAATGATATAGTATAACAAATGGACAGCTTGCGTACATCGGAGTCACCTAGTGCAG” was run?
**A.** The binding signal was 6420 fluorescence intensity (a.u.).

**Q.** How did the binding signal turn out when “ATAATATGTCAGTTAATTTATAATATCGGTGTACCCGAGACGGAGTCACCTAGTGCAG” was run?
**A.** The binding signal was 19100 fluorescence intensity (a.u.).

**Q.** “TAATGCTTAATTAATCTCAATATAATCGCGTGCTTTGTTTCGGAGTCACCTAGTGCAG” was tested. Which binding signal did it give?
**A.** The binding signal was 7810 fluorescence intensity (a.u.).

**Q.** “ATAACTAATTACGCAGATTGCAACCAATCTGCAAGACGAACGGAGTCACCTAGTGCAG” was tested. Which binding signal did it give?
**A.** The binding signal was 39300 fluorescence intensity (a.u.).

**Q.** For “AATTCATTGGCAATCACATTGTGCTTGTTGGCTAACTTCACGGAGTCACCTAGTGCAG”, which binding signal is on record?
**A.** Its binding signal is 13600 fluorescence intensity (a.u.).

**Q.** “AATCAAATTGATTGGCTTTATATTAATAGAGGGGAAGAAACGGAGTCACCTAGTGCAG” was tested. Which binding signal did it give?
**A.** Its binding signal is 33500 fluorescence intensity (a.u.).

**Q.** How did the binding signal turn out when “AGCAAGTCAGAAACAGCCAATCACATGATGCCACGTGCATCGGAGTCACCTAGTGCAG” was run?
**A.** Its binding signal is 9610 fluorescence intensity (a.u.).

**Q.** With “AGAATACCATTTTATAATTGCTAGGAATCGCCAACGCTCGCGGAGTCACCTAGTGCAG” as the sequence, how does the binding signal read?
**A.** Its binding signal is 3190 fluorescence intensity (a.u.).

**Q.** Which binding signal does the source give for “TACCGGTTATTGATAGTGTAGTATGTAACTATTGTATGAACGGAGTCACCTAGTGCAG” here?
**A.** The binding signal was 3370 fluorescence intensity (a.u.).

**Q.** With “AGTTAATCAAACCGAGCCAATCCAAGCCTGTTCTTTGCCACGGAGTCACCTAGTGCAG” as the sequence, how does the binding signal read?
**A.** Its binding signal is 3960 fluorescence intensity (a.u.).

**Q.** “TAATTAATTAAACCAAACATTAAATATATTTTGATAATATCGGAGTCACCTAGTGCAG” was tested. Which binding signal did it give?
**A.** Its binding signal is 20900 fluorescence intensity (a.u.).
